From paper PMC6151383 (Molecules : A Journal of Synthetic Chemistry and Natural …, 2017)
≈ marks a conversion by molar mass, not a printed value. Where two headings read alike, the source gives them in different places.

Key:
[1] = system: Staphylococcus epidermidis H 6966/08; assay: Antibacterial microdilution broth MIC, S. epidermidis; assay type: cell-based; settings: 24 h incubation, read-out: MIC SE 24 h
[2] = system: Staphylococcus aureus CCM 4516/08; assay: Antibacterial microdilution broth MIC, S. aureus; assay type: cell-based; settings: CCM4516, 24 h incubation, read-out: MIC SA 24 h
[3] = system: Candida glabrata 20/I; assay: Antifungal microdilution broth MIC, C. glabrata; assay type: cell-based; settings: Nakaseomyces glabratus, 24 h incubation, read-out: MIC CG 24 h
[4] = system: Candida albicans ATCC 44859; assay: Antifungal microdilution broth MIC, C. albicans; assay type: cell-based; settings: ATCC44859, 24 h incubation, read-out: MIC CA 24 h
[5] = system: Pseudomonas aeruginosa CCM 1961; assay: Antibacterial microdilution broth MIC, P. aeruginosa; assay type: cell-based; settings: 24 h incubation, read-out: MIC PA 24 h
[6] = system: Candida tropicalis 156; assay: Antifungal microdilution broth MIC, C. tropicalis; assay type: cell-based; settings: 24 h incubation, read-out: MIC CT 24 h
[7] = system: methicillin-resistant Staphylococcus aureus H 5996/08 (MRSA); assay: Antibacterial microdilution broth MIC, MRSA; settings: for MIC: Staphylococcus aureus
[8] = Cytotoxicity, CellTiter 96 assay; assay type: cell-based, human; settings: human, HepG2 cells, HepG2, 24 h incubation
Procedure: (§1) The cytotoxicity of the investigated compounds 1 and 2 was measured using the standard hepatic cell line HepG2 (Table 5). The used CellTiter 96 assay is based on the reduction of tetrazolium dye in living cells to formazan. This reduction is related to availability of NADH or NADPH. The parameter IC50, i.e., the concentration that reduces the viability of the cells to 50% of the maximal viability, was used as a measure of cytotoxicity. It was not possible to determine the exact IC50 values of two derivatives (compounds 2a, 2b) due to their limited solubility in the cell culture medium used in this experiment.
(§2) All of the compounds were tested to determine their cytotoxicity in the human hepatocellular liver carcinoma cell line HepG2 (passages 5–6 and 3–8; ECACC, Salisbury, UK) using a standard colorimetric method that involves measuring the reduction of a tetrazolium salt (CellTiter(R) 96 AQueous One Solution Cell Proliferation Assay; Promega, Fichtburg, MA, USA).
(§3) The cells were cultured in Minimum Essentials Eagle Medium (Sigma-Aldrich) supplemented with 10% foetal bovine serum (PAA), 1% L-glutamine solution (Sigma-Aldrich) and a non-essential amino acid solution (Sigma-Aldrich) in a humidified atmosphere containing 5% CO2 at 37 °C. The investigated compounds were dissolved in DMSO and a small volume was added to the cell culture. The tested compounds were prepared in triplicates at concentrations ranging from 1 to 1500 µM. Simultaneously, the following types of controls were also included in triplicates: determination of 100% viability and 0% viability (the cells were treated with 10% DMSO), no cell control and vehiculum controls. […] After 2 h incubation at 37 °C, absorbance of samples was recorded at 490 nm (Infinita M200, TECAN, Grödig, Austria). A standard toxicological parameter IC50 was calculated by nonlinear regression from a semilogarithmic plot of incubation concentration versus percentage of absorbance relative to untreated controls using GraphPad Prism 6 software (GraphPad Software Inc., San Diego, CA, USA). IC50 is the inhibitory concentration that reduces the cell viability to 50% of the maximal (control) viability.

[9] = system: Klebsiella pneumoniae D 11750/08; assay: Antibacterial microdilution broth MIC, K. pneumoniae; settings: 24 h incubation
[10] = system: Trichosporon asahii 1188; assay: Antifungal microdilution broth MIC, T. asahii; assay type: cell-based; settings: 24 h incubation, read-out: MIC TA 24 h
[11] = system: ESBL-positive Klebsiella pneumoniae J 14368/08; settings: 24 h incubation
[12] = system: Candida krusei E28; assay: Antifungal microdilution broth MIC, C. krusei; assay type: cell-based; settings: Pichia kudriavzevii, 24 h incubation, read-out: MIC CK 24 h
[13] = system: methicillin-resistant Staphylococcus aureus H 5996/08 (MRSA); design: method as in PMID 22365879; settings: cited from earlier work
[14] = system: Pseudomonas aeruginosa CCM 1961; design: method as in PMID 22365879; settings: 24 h incubation; cited from earlier work
[15] = system: Staphylococcus aureus CCM 4516/08; design: method as in PMID 22365879; settings: 24 h incubation; cited from earlier work
[16] = system: Enterococcus faecalis J 14365/08; design: method as in PMID 22365879; settings: 24 h incubation; cited from earlier work
[17] = system: Aspergillus fumigatus 231; design: method as in PMID 22365879; settings: 24 h incubation; cited from earlier work
[18] = system: Escherichia coli CCM 4517; design: method as in PMID 22365879; settings: 24 h incubation; cited from earlier work
[19] = system: Candida albicans ATCC 44859; design: method as in PMID 22365879; settings: 24 h incubation; cited from earlier work
[20] = system: Trichosporon asahii 1188; design: method as in PMID 22365879; settings: 24 h incubation; cited from earlier work
[21] = system: Candida tropicalis 156; design: method as in PMID 22365879; settings: 24 h incubation; cited from earlier work
[22] = system: Lichtheimia corymbifera 272; design: method as in PMID 22365879; settings: 24 h incubation; cited from earlier work
[23] = system: Klebsiella pneumoniae D 11750/08; design: method as in PMID 22365879; settings: 24 h incubation; cited from earlier work
[24] = system: Staphylococcus epidermidis H 6966/08; design: method as in PMID 22365879; settings: 24 h incubation; cited from earlier work
[25] = system: Candida glabrata 20/I; design: method as in PMID 22365879; settings: 24 h incubation; cited from earlier work
[26] = system: ESBL-positive Klebsiella pneumoniae J 14368/08; design: method as in PMID 22365879; settings: 24 h incubation; cited from earlier work
[27] = system: Candida krusei E28; design: method as in PMID 22365879; settings: 24 h incubation; cited from earlier work
[28] = system: Enterococcus faecalis J 14365/08; assay: Antibacterial microdilution broth MIC, E. faecalis; assay type: cell-based; settings: 24 h incubation, read-out: MIC EF 24 h
[29] = system: Escherichia coli CCM 4517; assay: Antibacterial microdilution broth MIC, E. coli; assay type: cell-based; settings: 24 h incubation, read-out: MIC EC 24 h
[30] = system: Aspergillus fumigatus 231; assay: Antifungal microdilution broth MIC, A. fumigatus; assay type: cell-based; settings: 24 h incubation, read-out: MIC AF 24 h
[31] = system: Lichtheimia corymbifera 272; assay: Antifungal microdilution broth MIC, L. corymbifera; assay type: cell-based; settings: 24 h incubation, read-out: MIC LC 24 h
[32] = system: HepG2 cells; assay: Cytotoxicity, CellTiter 96 assay; assay type: cell-based, human; settings: HepG2, 24 h incubation
Procedure: as §1, §2, §3

[33] = Staphylococcus epidermidis, H6966/08
[34] = Pseudomonas aeruginosa, CCM1961
[35] = MRSA, 48 h, read-out: MIC MRSA 48 h
[36] = MRSA, 24 h, read-out: MIC MRSA 24 h
[37] = Enterococcus faecalis, J14365/08

| Molecule | MIC [1, 33] | MIC [2] | MIC [3] | MIC [4] | MIC [5, 34] | MIC [6] | MIC [7, 35] | IC50 at 24 h [8] | MIC KP 24 h [9] | MIC [10] | MIC KP-E 24 h [11] | MIC [12] | MIC [7, 36] | MIC [30] | MIC [31] | MIC [28, 37] | MIC ([29]; Escherichia coli, CCM4517) | IC50 [32] | also measured |
| --- | --- | --- | --- | --- | --- | --- | --- | --- | --- | --- | --- | --- | --- | --- | --- | --- | --- | --- | --- |
| O=S(=O)(Nc1ncccn1)c1ccc(N=Cc2cc(I)cc(I)c2O)cc1 [Compound 2p, 4-[(2-Hydroxy-3,5-diiodobenzylidene)amino]-N-(pyrimidin-2-yl)benzenesulfonamide] | 7.81 µM (≈ 4.73 µg/mL) | 7.81 µM (≈ 4.73 µg/mL) | 3.9 µM (≈ 2.36 µg/mL) | 3.9 µM (≈ 2.36 µg/mL) | 500 µM (≈ 303 µg/mL) | 7.81 µM (≈ 4.73 µg/mL) | 7.81 µM (≈ 4.73 µg/mL) | 38 µM | 125 µM (≈ 75.8 µg/mL) | 3.9 µM (≈ 2.36 µg/mL) | 125 µM (≈ 75.8 µg/mL) | 7.81 µM (≈ 4.73 µg/mL) | – | – | – | – | – | – | – |
| O=S(=O)(Nc1ncccn1)c1ccc(N=Cc2cc(Cl)ccc2O)cc1 [Compound 2c, 4-[(5-Chloro-2-hydroxybenzylidene)amino]-N-(pyrimidin-2-yl)benzenesulfonamide] | – | – | – | – | – | – | – | – | – | – | – | – | – | – | – | – | – | – | MIC MRSA 24 h ([13]; 24 h incubation): 125 µM (≈ 48.6 µg/mL); MIC MRSA 48 h ([13]; 48 h incubation): 125 µM (≈ 48.6 µg/mL); MIC PA 24 h [14]: >500 µM; MIC SA 24 h [15]: 250 µM (≈ 97.2 µg/mL); MIC EF 24 h [16]: >500 µM; MIC AF 24 h [17]: >500 µM; MIC EC 24 h [18]: >500 µM; MIC CA 24 h [19]: 125 µM (≈ 48.6 µg/mL); MIC TA 24 h [20]: 62.5 µM (≈ 24.3 µg/mL); MIC CT 24 h [21]: >500 µM; MIC LC 24 h [22]: >500 µM; MIC KP 24 h [23]: >500 µM; MIC SE 24 h [24]: >500 µM; MIC CG 24 h [25]: 125 µM (≈ 48.6 µg/mL); MIC KP-E 24 h [26]: >500 µM; MIC CK 24 h [27]: >500 µM |
| CC(C)(C)c1ccc(O)c(C=Nc2ccc(S(=O)(=O)Nc3ncccn3)cc2)c1 [Compound 2j, 4-{[5-(Tert-butyl)-2-hydroxybenzylidene]amino}-N-(pyrimidin-2-yl)benzenesulfonamide] | – | – | – | – | – | – | > 125 µM | – | >125 µM | – | >125 µM | – | > 125 µM | – | – | – | – | – | SI for Staphylococci (MRSA) ([7]; SI = IC50 (HepG2)/MIC, MRSA): inactive |
| Bacitracin [reference compound] | – | – | – | – | – | – | – | – | >500 µM | – | >500 µM | – | – | – | – | – | – | – | MIC [1]: 15.62 µM; MIC [5]: >500 µM; MIC MRSA 24 h ([7]; 24 h incubation): 15.62 µM; MIC MRSA 48 h ([7]; 48 h incubation): 15.62 µM; MIC [28]: 15.62 µM; MIC [29]: >500 µM |
| O=[N+]([O-])c1ccc(C=Nc2ccc(S(=O)(=O)Nc3ncccn3)cc2)o1 [Compound 2q, 4-{[(5-Nitrofuran-2-yl)methylene]amino}-N-(pyrimidin-2-yl)benzenesulfonamide] | 31.2 µM (≈ 11.7 µg/mL) | – | 250 µM (≈ 93.3 µg/mL) | 250 µM (≈ 93.3 µg/mL) | 250 µM (≈ 93.3 µg/mL) | 250 µM (≈ 93.3 µg/mL) | 125 µM (≈ 46.7 µg/mL) | 16 µM | – | 500 µM (≈ 187 µg/mL) | – | 250 µM (≈ 93.3 µg/mL) | 125 µM (≈ 46.7 µg/mL) | 500 µM (≈ 187 µg/mL) | > 500 µM | > 500 µM | > 500 µM | 16.3 µM | – |
| O=S(=O)(Nc1ncccn1)c1ccc(N=Cc2ccccc2O)cc1 [Compound 2a, 4-[(2-Hydroxybenzylidene)amino]-N-(pyrimidin-2-yl)benzenesulfonamide] | 62.5 µM (≈ 22.1 µg/mL) | 500 µM (≈ 177 µg/mL) | > 500 µM | > 500 µM | 500 µM (≈ 177 µg/mL) | > 500 µM | 250 µM (≈ 88.6 µg/mL) | > 250 µM | – | > 500 µM | – | > 500 µM | – | > 500 µM | > 500 µM | 31.2 µM (≈ 11.1 µg/mL) | > 500 µM | > 500 µM | – |
